The source of these data is a collection of fitness landscapes (doi:10.1126/science.1257360).

This is one part of the list. Where only a bound is given, the exact number is not on record here.

First the molecules themselves.
B1: PhoQ; a variant is named by its letters at X, in order, P23837 (parent)
chain: MKKLLRLFFPLSLRVRFLLATAAVVLVLSLAYGMVALIGYSVSFDKTTFRLLRGESNLFYTLAKWENNKLHVELPENIDKQSPTMTLIYDENGQLLWAQRDVPWLMKMIQPDWLKSNGFHEIEADVNDTSLLLSGDHSIQQQLQEVREDDDDAEMTHSVAVNVYPATSRMPKLTIVVVDTIPVELKSSYMVWSWFIYVLSANLLLVIPLLWVAAWWSLRPIEALAKEVRELEEHNRELLNPATTRELTSLVRNLNRLLKSERERYDKYRTTLTDLTHSLKTPLXXLQXXLRSLRSEKMSVSDAEPVMLEQISRISQQIGYYLHRASMRGGTLLSRELHPVAPLLDNLTSALNKVYQRKGVNISLDISPEISFVGEQNDFVEVMGNVLDNACKYCLEFVEISARQTDEHLYIVVEDDGPGIPLSKREVIFDRGQRVDTLRPGQGVGLAVAREITEQYEGKIVAGESMLGGARMEVIFGRQHSAPKDE

Variants of B1 are the subject of the assay. The experiment in a line: enrichment ratio after two sorts for PhoP signalling (ratio (wild type AVST 3.29)); higher = more functional. Particulars: with PhoP (E. coli).
On to MGED, for which the enrichment ratio is at most 0.25.

On to VLNA, for which the enrichment ratio was at most 0.25.

For the variant ADKT, the enrichment ratio is at most 0.25.

On to DFQC, for which the enrichment ratio was at most 0.25.

For MQWC, the enrichment ratio is at most 0.25.

As for EGLW, the enrichment ratio was at most 0.25.

Take VCKP: the enrichment ratio was at most 0.25.

HIQI: the enrichment ratio is at most 0.25.

As to SYCE, the enrichment ratio is 2.48.

Turning to PRWG, the enrichment ratio was at most 0.25.

For the variant DFFK, the enrichment ratio is at most 0.25.

On to EFLS, for which the enrichment ratio was at most 0.25.

With FRRP, the enrichment ratio was at most 0.25.

With RMAS, the enrichment ratio was at most 0.25.

Take TGPP: the enrichment ratio was at most 0.25.

In the case of HNRD, the enrichment ratio was at most 0.25.

Take VHNN: the enrichment ratio was at most 0.25.

As for QCFH, the enrichment ratio was at most 0.25.

Consider SMFV, for which the enrichment ratio is at most 0.25.

Regarding DDRF, the enrichment ratio was at most 0.25.

As to RDQT, the enrichment ratio is at most 0.25.

Consider QIMF, for which the enrichment ratio was at most 0.25.

As to EVGP, the enrichment ratio was at most 0.25.

Turning to DHFI, the enrichment ratio was at most 0.25.

On to VFVY, for which the enrichment ratio is at most 0.25.

FYRT: the enrichment ratio was at most 0.25.

With GIPV, the enrichment ratio was at most 0.25.

As to TGSH, the enrichment ratio stood at 8.48.

With VMIH, the enrichment ratio was at most 0.25.

Consider KPLI, for which the enrichment ratio is at most 0.25.

Regarding NEKA, the enrichment ratio was at most 0.25.

Consider DAEV, for which the enrichment ratio is at most 0.25.

On to VGMS, for which the enrichment ratio is at most 0.25.

For SNRP, the enrichment ratio is at most 0.25.

With YFVM, the enrichment ratio is at most 0.25.

Consider INRN, for which the enrichment ratio was at most 0.25.

For the variant MLNM, the enrichment ratio is at most 0.25.

As for DRAD, the enrichment ratio is at most 0.25.

Regarding NGAS, the enrichment ratio was determined as 0.365.

As to YSPM, the enrichment ratio is at most 0.25.

For the variant IECY, the enrichment ratio is at most 0.25.

As to IAFA, the enrichment ratio is at most 0.25.

With PWWK, the enrichment ratio was at most 0.25.

As to LMLR, the enrichment ratio was at most 0.25.

As to IDNT, the enrichment ratio was at most 0.25.

On to MMGL, for which the enrichment ratio was 0.506.

For the variant WTFH, the enrichment ratio is at most 0.25.

Turning to DDQR, the enrichment ratio was at most 0.25.

HNPR: the enrichment ratio was at most 0.25.

On to CHLM, for which the enrichment ratio is at most 0.25.

Take SWQC: the enrichment ratio is at most 0.25.

Take LPYS: the enrichment ratio was at most 0.25.

Turning to PIKL, the enrichment ratio is at most 0.25.

As to YDQF, the enrichment ratio is at most 0.25.

For AVYT, the enrichment ratio stood at 0.57.

For EGPA, the enrichment ratio is at most 0.25.

For the variant ENIT, the enrichment ratio was at most 0.25.

With KYLQ, the enrichment ratio is at most 0.25.

Turning to SIWW, the enrichment ratio was at most 0.25.

Regarding PRSV, the enrichment ratio was at most 0.25.

For the variant PLTD, the enrichment ratio is at most 0.25.

Turning to FMKV, the enrichment ratio was at most 0.25.

For the variant WHTW, the enrichment ratio was at most 0.25.

Turning to DTRE, the enrichment ratio was at most 0.25.

In the case of HKGS, the enrichment ratio is at most 0.25.

With ISDY, the enrichment ratio was at most 0.25.

For the variant FESW, the enrichment ratio is at most 0.25.

Turning to ERWG, the enrichment ratio was at most 0.25.

In the case of KLMC, the enrichment ratio is at most 0.25.

For the variant CFAA, the enrichment ratio was at most 0.25.

On to YWKA, for which the enrichment ratio was at most 0.25.

With FIGH, the enrichment ratio is at most 0.25.

Take TGMP: the enrichment ratio was at most 0.25.

In the case of NGVA, the enrichment ratio is at most 0.25.

For QYLF, the enrichment ratio was at most 0.25.

With YIGM, the enrichment ratio was 0.38.

IVIK: the enrichment ratio is at most 0.25.

Consider LQSQ, for which the enrichment ratio is at most 0.25.

Turning to RGYP, the enrichment ratio was at most 0.25.

Consider FSPF, for which the enrichment ratio was at most 0.25.

As to WWSL, the enrichment ratio was at most 0.25.

With RLFQ, the enrichment ratio was at most 0.25.

Take INGN: the enrichment ratio is at most 0.25.

Turning to ANGY, the enrichment ratio was 7.14.

Turning to AHQV, the enrichment ratio was at most 0.25.

Take RVQL: the enrichment ratio is at most 0.25.

Turning to KCTC, the enrichment ratio was at most 0.25.

Take TNYH: the enrichment ratio is at most 0.25.

For the variant DMHD, the enrichment ratio was at most 0.25.

For SEMC, the enrichment ratio is 18.

On to QLSM, for which the enrichment ratio is 3.11.

As to LWDT, the enrichment ratio was at most 0.25.

Consider SSCT, for which the enrichment ratio was found to be 8.97.

On to PMSK, for which the enrichment ratio is at most 0.25.

KMTF: the enrichment ratio was at most 0.25.

Regarding LYPT, the enrichment ratio is at most 0.25.

As for NKHE, the enrichment ratio is at most 0.25.

For WGWL, the enrichment ratio was at most 0.25.

As for FPLP, the enrichment ratio was at most 0.25.

As for NWDA, the enrichment ratio is at most 0.25.

For the variant LAKD, the enrichment ratio was at most 0.25.

Regarding TYTC, the enrichment ratio was at most 0.25.

Turning to PGKL, the enrichment ratio was at most 0.25.

Turning to QARK, the enrichment ratio is at most 0.25.

Take NNEP: the enrichment ratio was at most 0.25.

With PSAC, the enrichment ratio is at most 0.25.

As to SYRV, the enrichment ratio is at most 0.25.

As for HWGS, the enrichment ratio was at most 0.25.

As to KPYW, the enrichment ratio was at most 0.25.

In the case of ENRT, the enrichment ratio was at most 0.25.

For GGMP, the enrichment ratio is at most 0.25.

In the case of GPAN, the enrichment ratio was at most 0.25.

For FDDH, the enrichment ratio is at most 0.25.

Take HHRY: the enrichment ratio is at most 0.25.

As for YQNE, the enrichment ratio was at most 0.25.

For the variant QAGC, the enrichment ratio came to 4.31.

SQTV: the enrichment ratio came out at 10.4.

On to SGRF, for which the enrichment ratio is at most 0.25.

With PIVR, the enrichment ratio is at most 0.25.

In the case of ACQV, the enrichment ratio is at most 0.25.

Turning to TWFW, the enrichment ratio was at most 0.25.

For YKAN, the enrichment ratio is at most 0.25.

As for NYHP, the enrichment ratio is at most 0.25.

Take FYHW: the enrichment ratio is at most 0.25.

As for AWSQ, the enrichment ratio was at most 0.25.

Take QIPP: the enrichment ratio is at most 0.25.

Regarding LLRM, the enrichment ratio is at most 0.25.

Turning to EGRN, the enrichment ratio is at most 0.25.

RCCA: the enrichment ratio is at most 0.25.

In the case of PKVK, the enrichment ratio is at most 0.25.

Turning to GAMV, the enrichment ratio is at most 0.25.

On to INKD, for which the enrichment ratio was at most 0.25.

On to PLQP, for which the enrichment ratio was at most 0.25.

With EFQE, the enrichment ratio was at most 0.25.

For SVNH, the enrichment ratio was determined as 3.33.

TGIC: the enrichment ratio was at most 0.25.

Turning to AIPG, the enrichment ratio is at most 0.25.

With IKMF, the enrichment ratio is at most 0.25.

On to VNCF, for which the enrichment ratio stood at 1.95.

As for MSQE, the enrichment ratio is at most 0.25.

Consider ESMQ, for which the enrichment ratio was at most 0.25.

In the case of CIFL, the enrichment ratio is at most 0.25.

With QSDI, the enrichment ratio was 14.8.

On to MYAD, for which the enrichment ratio is at most 0.25.

For the variant KQYA, the enrichment ratio is at most 0.25.

Turning to IKSL, the enrichment ratio is at most 0.25.

For TDRN, the enrichment ratio was at most 0.25.

Regarding INHL, the enrichment ratio is at most 0.25.

Take MRCQ: the enrichment ratio was at most 0.25.

For the variant PPPW, the enrichment ratio is at most 0.25.

For PYFQ, the enrichment ratio was at most 0.25.

For the variant FKGF, the enrichment ratio was at most 0.25.

Regarding FERF, the enrichment ratio was at most 0.25.

As for RWYL, the enrichment ratio is at most 0.25.

As for YRCR, the enrichment ratio was at most 0.25.

For SVFT, the enrichment ratio was at most 0.25.

As to GLWV, the enrichment ratio was at most 0.25.

AATY: the enrichment ratio was at most 0.25.

With EYWG, the enrichment ratio was at most 0.25.

On to NHPP, for which the enrichment ratio is at most 0.25.

SLTM: the enrichment ratio was 12.5.

Take WCFI: the enrichment ratio was at most 0.25.

On to YTKH, for which the enrichment ratio is at most 0.25.

As for HKCA, the enrichment ratio is at most 0.25.

As to FGRH, the enrichment ratio was at most 0.25.

Take NMPM: the enrichment ratio is at most 0.25.

As to TYLP, the enrichment ratio is at most 0.25.

In the case of AQHS, the enrichment ratio was at most 0.25.

In the case of IFIW, the enrichment ratio was at most 0.25.

KVNN: the enrichment ratio is at most 0.25.

In the case of WLGL, the enrichment ratio is at most 0.25.

As for HEVE, the enrichment ratio was at most 0.25.

Take YECR: the enrichment ratio is at most 0.25.

Take GFCD: the enrichment ratio is at most 0.25.

Turning to FGKS, the enrichment ratio is at most 0.25.

KGEC: the enrichment ratio is at most 0.25.

As to FIQT, the enrichment ratio is at most 0.25.

As to HGTG, the enrichment ratio was at most 0.25.

On to LDEL, for which the enrichment ratio is at most 0.25.

As to YTQD, the enrichment ratio was at most 0.25.

As for NNMP, the enrichment ratio was at most 0.25.

In the case of WPWE, the enrichment ratio was at most 0.25.

SYKE: the enrichment ratio was at most 0.25.

For IRFN, the enrichment ratio is at most 0.25.

RVRE: the enrichment ratio is at most 0.25.

Take HLGP: the enrichment ratio was at most 0.25.

Turning to WERW, the enrichment ratio was at most 0.25.

For the variant ERRT, the enrichment ratio is at most 0.25.

Consider GGIK, for which the enrichment ratio was at most 0.25.

As for YTLK, the enrichment ratio is at most 0.25.

With TCNS, the enrichment ratio is 16.1.

EYHV: the enrichment ratio is at most 0.25.

As for FMDG, the enrichment ratio was at most 0.25.

Take VWCV: the enrichment ratio is at most 0.25.

For the variant ILVA, the enrichment ratio was at most 0.25.
